# Measurements: PubChem BioAssay (Tox21)
# Inconclusive results, whose numbers are uncertain, are shown with a selection of clear calls. For part of these data: Potencies of inconclusive entries are doubtful fits and often do not repeat. Activity calls are given as the source filed them. Unless noted, calls come from the whole dose curve.
# How the values were obtained:
# [1] = target: Peroxisome proliferator-activated receptor gamma (Homo sapiens) (UniProt P37231); test: qHTS assay to identify small molecule antagonists of the peroxisome proliferator-activated receptor gamma (PPARg) signaling pathway (AID 743191); conditions: HEK293H PPARg-UAS-bla, beta-lactamase ratio, antagonist, 17 h; ratio activity, negative = inhibition: at 62.6 µM (top of the series) unless noted; note: nearly all actives have a fitted effect of over 30% in size; note: potency is the fitted concentration of half-maximal effect
# Outline: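 Beta-lactamase reporter under UAS control in HEK293H PPARg-bla cells; compound treatment 17 h at 37C. Read-out: fluorescence intensity after 1 h room-temperature incubation with LiveBLAzer B/G FRET substrate.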
# [2] = qHTS assay for small molecule agonists of the antioxidant response element (ARE) signaling pathway - cell viability counter screen (AID 743203); conditions: ARE-bla HepG2 viability, CellTiter-Glo luminescence, 16 h; viability change, negative = cytotoxic: at 73.3 µM (top of the series); note: nearly all actives have a fitted effect of over 55% in size
# Outline: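 Measured in the same wells as the beta-lactamase ARE reporter, this read-out is CellTiter-Glo luminescence from HepG2 ARE-bla cells given compounds for 16 hrs.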
# [3] = qHTS assay for small molecule activators of the heat shock response signaling pathway (AID 743210; active = well fitted activation curve with a large enough effect in the signal ratio in the repeat runs, with a control signal flat, not every such curve was filed as active; inconclusive = weak or mixed curves; the % refers to the signal ratio; note: potency is the fitted concentration of half-maximal effect;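 for activation: HeLa cells with beta-lactamase reporter driven by heat shock elements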); conditions: HeLa HSE-bla reporter, beta-lactamase ratio, 5 h; activation: at 62.6 µM (top of the series) unless noted
# Outline: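 Fluorescence from a cleaved B/G FRET substrate (2.5 h, room temp) reports HSE-driven beta-lactamase in HeLa cells treated 5 h at 37 C with DMSO-dissolved compounds.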
# [4] = qHTS assay to identify small molecule agonists of the peroxisome proliferator-activated receptor delta (PPARd) signaling pathway - cell viability counter screen (AID 743211; active = well fitted curve in the direction sought with a large enough effect in the repeat runs; inconclusive = weak or mixed curves; inactive = no such curve, though single readings can be large; an effect the other way counts as inactive or inconclusive; note: nearly all actives have a fitted effect of over 55% in size; note: potency is the fitted concentration of half-maximal effect); conditions: PPARd-bla HEK293H viability, CellTiter-Glo luminescence, 17 h; activity change, negative = cytotoxicity: at 62.6 µM (top of the series)
# Outline: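 Multiplexed format: after the 2 h room-temperature LiveBLAzer B/G FRET step, CellTiter-Glo was added to the same wells. Luminescence after 30 min gave cell viability; compound exposure was 17 h at 37C.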
# [5] = qHTS assay for small molecule agonists of the antioxidant response element (ARE) signaling pathway (AID 743202; active = well fitted activation curve with a large enough effect in the signal ratio in the repeat runs, not every such curve was filed as active; inconclusive = weak or mixed curves, or effect the other way; inactive = no such curve, though single readings can be large or run the other way; the % refers to the signal ratio); conditions: HepG2 ARE-bla reporter, beta-lactamase FRET, 16 h; activation: at 73.3 µM (top of the series) unless noted
# Outline: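 Beta-lactamase reporter activity, read as fluorescence intensity, reflects ARE/Nrf2 pathway induction in HepG2 cells after 16 h compound exposure at 37 C; substrate loading was 2 h at room temperature.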
# [6] = qHTS assay to identify small molecule antagonists of the peroxisome proliferator-activated receptor gamma (PPARg) signaling pathway - cell viability counter screen (AID 743194; active = well fitted curve in the direction sought with a large enough effect in the repeat runs; inconclusive = weak or mixed curves; inactive = no such curve, though single readings can be large; an effect the other way counts as inactive or inconclusive; note: nearly all actives have a fitted effect of over 55% in size; note: potency is the fitted concentration of half-maximal effect); conditions: PPARg-bla HEK293H viability, CellTiter-Glo luminescence, 17 h, co-treated with 50 nM rosiglitazone; activity change, negative = cytotoxicity: at 62.6 µM (top of the series) unless noted
# Outline: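 Viability was measured as CellTiter-Glo luminescence in GeneBLAzer PPARg UAS-bla HEK293H cells. These cells had been exposed 17 h at 37 C to compounds together with rosiglitazone at 50 nM final, with the beta-lactamase readout taken in the same wells.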
# [7] = qHTS assay for small molecule activators of the heat shock response signaling pathway - cell viability counter screen (AID 743209; active = well fitted curve in the direction sought with a large enough effect in the repeat runs; inconclusive = weak or mixed curves; inactive = no such curve, though single readings can be large; an effect the other way counts as inactive or inconclusive; note: nearly all actives have a fitted effect of over 50% in size; note: potency is the fitted concentration of half-maximal effect); conditions: HSE-bla HeLa viability, CellTiter-Glo luminescence, 5 h; activity change, negative = cytotoxicity: at 62.6 µM (top of the series) unless noted
# Outline: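 Same-well multiplex: after 2.5 h room-temperature incubation with LiveBLAzer B/G substrate and fluorescence reading, CellTiter-Glo reagent was added to HSE-bla HeLa cells that had received compound for 5 h at 37 C; luminescence read after 30 min.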
# % is set by controls: 0 for no effect and ±100 for the full control effect; tags give direction and shape of the fitted curve or compound fluorescence and quenching.
# Sequence of UniProt P37231 (P37231 whole entry, looked up): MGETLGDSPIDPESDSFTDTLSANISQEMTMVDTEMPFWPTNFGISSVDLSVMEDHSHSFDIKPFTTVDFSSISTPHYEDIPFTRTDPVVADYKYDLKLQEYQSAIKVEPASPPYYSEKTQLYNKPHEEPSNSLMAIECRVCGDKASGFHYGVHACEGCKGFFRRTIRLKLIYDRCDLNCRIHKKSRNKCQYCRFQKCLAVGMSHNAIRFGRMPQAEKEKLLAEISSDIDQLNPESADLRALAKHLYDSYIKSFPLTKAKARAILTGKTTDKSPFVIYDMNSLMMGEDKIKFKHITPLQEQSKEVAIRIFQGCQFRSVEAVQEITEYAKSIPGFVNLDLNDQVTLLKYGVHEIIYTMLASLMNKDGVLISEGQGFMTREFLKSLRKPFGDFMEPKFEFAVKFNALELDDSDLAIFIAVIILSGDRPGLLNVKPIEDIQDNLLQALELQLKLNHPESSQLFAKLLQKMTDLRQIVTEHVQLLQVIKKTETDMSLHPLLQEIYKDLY
compound,measurement,setting,value
CCCCNC(N)=O,"ratio activity, negative = inhibition",[1],inconclusive: 4.64%
same,Potency,[2],inactive
same,Potency,[3],inconclusive: 54.9 µM [activator]
same,Potency,[4],inactive
Cc1ccc(OC(=O)CC(C)C)cc1,"ratio activity, negative = inhibition",[1],inconclusive: 2.08%
same,Potency,[5],inactive
same,Potency,[4],inactive
c1ccc(SSc2ccccc2)cc1,Potency,[1],inactive
same,Potency,[5],inactive
same,Potency,[3],inconclusive: 23.8 µM
Cc1ccc(S(=O)(=O)O)cc1C,Potency,[1],inactive
same,activation,[5],inconclusive: 10.3%
same,Potency,[3],inactive
O=C(O)CNC(=O)c1ccccc1,"ratio activity, negative = inhibition",[1],inconclusive: 13.4%
same,Potency,[3],inactive
CCOC(=O)CS,"ratio activity, negative = inhibition",[1],inconclusive: -31.9% [inhibitor] [at 81.1 µM]
same,Potency,[4],"inconclusive: 63.5 µM [cytotoxic, single point]"
O=C(O)/C=C/c1ccc(/C=C/C(=O)O)cc1,Potency,[6],"inconclusive: 0.135 µM [rising, partial curve, poor fit]"
COc1ccc(C)cc1,Potency,[1],inactive
same,activation,[3],inconclusive: 2.26%
Cc1cc(C(C)(C)C)cc(C)c1CC1=NCCN1,Potency,[1],inactive
same,Potency,[3],inactive
C/C(=C1\CCOC(=O)S1)N(C=O)Cc1cnc(C)nc1N,"ratio activity, negative = inhibition",[1],inconclusive: 1.52%
same,Potency,[4],"inconclusive: 13.3 µM [cytotoxic, partial curve, poor fit]"
CC(=O)[C@@]1(O)CC[C@H]2[C@@H]3CCC4=CC(=O)CC[C@]4(C)[C@H]3CC[C@@]21C,Potency,[6],"inconclusive: 54.9 µM [cytotoxic, single point]"
Cc1cc(CCC(=O)OCCOCCOCCOC(=O)CCc2cc(C)c(O)c(C(C)(C)C)c2)cc(C(C)(C)C)c1O,"ratio activity, negative = inhibition",[1],inconclusive: 8.17%
same,Potency,[7],inactive
same,Potency,[4],inactive
C=C(C)C(=O)OCCN(CC)CC,Potency,[1],"inconclusive: 0.0031 µM [falling, full curve, poor fit]"
same,"activity change, negative = cytotoxicity",[7],inconclusive: -0.497%
CCOc1ccc(OCC)c(Cl)c1,Potency,[6],"inconclusive: 0.389 µM [cytotoxic, full curve, poor fit]"
N#Cc1cc(NC(=O)C(=O)O)c(Cl)c(NC(=O)C(=O)O)c1,Potency,[1],inactive
same,Potency,[4],inactive
C[C@H]1NCc2cc(-c3ccc4c(=O)c(C(=O)O)cn(C5CC5)c4c3OC(F)F)ccc21,Potency,[1],"inconclusive: 5.8 µM [activator, single point]"
same,Potency,[7],"inconclusive: 1.46 µM [cytotoxic, single point]"
CN(C)C(C)(C)CO,"ratio activity, negative = inhibition",[1],inconclusive: 7.58%
same,Potency,[7],inactive
Cc1ccc(S(=O)(=O)NC2CCCCC2)cc1,"ratio activity, negative = inhibition",[1],inconclusive: -7.53%
same,Potency,[4],inactive
CCCCOC(=O)CO,Potency,[1],inactive
same,Potency,[3],inactive
CCN(CC)CCNC(=O)c1ccc(NC(C)=O)cc1,Potency,[1],inactive
same,Potency,[2],inactive
same,Potency,[4],inactive
CCCCCCC(O)CCOC(C)=O (stereo unspecified),"ratio activity, negative = inhibition",[1],inconclusive: 17% [at 232 µM]
same,Potency,[4],"inconclusive: 145 µM [rising, single point]"
COC(=O)Nc1nc2ccc(C(=O)C3CC3)cc2[nH]1,"ratio activity, negative = inhibition",[1],inconclusive: -2.03%
same,Potency,[3],"inconclusive: 23.7 µM [activator, partial curve, poor fit]"
CCCCC(CC)COC(=O)c1ccccc1O (stereo unspecified),Potency,[1],inactive
same,Potency,[7],"inconclusive: 0.0944 µM [cytotoxic, full curve]"
O[C@@H]([C@H](O)[C@H](O)CBr)[C@H](O)CBr,Potency,[1],inactive
same,Potency,[3],inactive
COC(C)(C)OC,"ratio activity, negative = inhibition",[1],inconclusive: -1.45%
same,Potency,[7],"inconclusive: 0.0042 µM [rising, full curve]"
O=C(O)CCC(=O)OC[C@@H](NC(=O)C(Cl)Cl)[C@H](O)c1ccc([N+](=O)[O-])cc1,"ratio activity, negative = inhibition",[1],inconclusive: -4.63%
same,Potency,[3],"inconclusive: 2.11 µM [rising, full curve, poor fit]"
O=S(=O)(O)CO,Potency,[1],inactive
same,"activity change, negative = cytotoxicity",[7],inconclusive: 1.02%
Cc1ccc2c(c1)CCCN2,Potency,[1],"inconclusive: 61.6 µM [activator, partial curve, poor fit]"
same,Potency,[4],inactive
c1cnccn1,Potency,[1],inactive
same,Potency,[3],inactive
CCOC(=O)CC(C)C,"activity change, negative = cytotoxicity",[6],inconclusive: 30%
OCCCCCCCl,"ratio activity, negative = inhibition",[1],inconclusive: -3.14% [at 81.1 µM]
same,Potency,[3],inactive
CCN(CC#N)c1cccc(C)c1,"ratio activity, negative = inhibition",[1],inconclusive: 11.3%
same,Potency,[3],inactive
CC(C)N(C)C,Potency,[1],inactive
same,Potency,[4],inactive
NCC1CCCC(CN)C1 (stereo unspecified),"ratio activity, negative = inhibition",[1],inconclusive: 25.1%
same,Potency,[3],inactive
CCc1nnc(NS(=O)(=O)c2ccc(N)cc2)s1,Potency,[1],inactive
same,Potency,[4],inactive
CCCCCCCCCCCCCCCCCCOCC(O)CO (stereo unspecified),"ratio activity, negative = inhibition",[1],inconclusive: -8.47%
same,Potency,[4],inactive
CC[C@@H](N)CO,"ratio activity, negative = inhibition",[1],inconclusive: 2.38% [at 81.1 µM]
same,Potency,[7],"inconclusive: 0.116 µM [rising, full curve, poor fit]"
OC[C@@H](O)[C@@H](O)CO,"ratio activity, negative = inhibition",[1],inconclusive: 0.579%
same,Potency,[3],inactive
COc1ccc(CCN(C)CCCN2CCc3cc(OC)c(OC)cc3CC2=O)cc1OC,"ratio activity, negative = inhibition",[1],inconclusive: -1.97%
same,Potency,[3],inconclusive: 10 µM [activator]
